Laboratory results taken from the supplement of paper PMC8728848.
Some of the results follow.

Tests used:
Test in all cases: glycan array binding signal (z-score within array); higher = stronger binding
Conditions in all cases: glycan notation: IUPAC condensed, linker removed
[1] = target: Gal(b1-4)GalNAc(b1-3)[Fuc(a1-2)]Gal(b1-4)GlcNAc
Procedure, shortened: (§1)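 Glycan array data came from 3228 arrays in the Consortium for Functional Glycomics database, and only arrays with an available protein sequence were kept. Glycan names were put into IUPAC-condensed notation, and columns mapping to the same glycan were averaged. The binding signal is a within-array Z-score, averaged across arrays of one protein sequence run at different concentrations or buffers and across linkers. A negative Z-score can be read as non-binding.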

[2] = target: Gal(b1-4)Glc
Procedure, shortened: as §1

[3] = target: Gal(b1-4)Glc6S
Procedure, shortened: as §1

[4] = target: Gal(b1-4)GlcNAc
Procedure, shortened: as §1

[5] = target: Gal(b1-4)GlcNAc(a1-6)Gal(b1-4)GlcNAc
Procedure, shortened: as §1

[6] = target: Gal(b1-4)GlcNAc(b1-2)Man
Procedure, shortened: as §1

[7] = target: Gal(b1-4)GlcNAc(b1-2)Man(a1-3)Man(b1-4)GlcNAc(b1-4)GlcNAc
Procedure, shortened: as §1

[8] = target: Gal(b1-4)GlcNAc(b1-2)Man(a1-3)[Gal(b1-4)GlcNAc(b1-2)Man(a1-6)]Man(b1-4)GlcNAc(b1-4)GlcNAc
Procedure, shortened: as §1

[9] = target: Gal(b1-4)GlcNAc(b1-2)Man(a1-3)[Gal(b1-4)GlcNAc(b1-2)Man(a1-6)]Man(b1-4)GlcNAc(b1-4)[Fuc(a1-6)]GlcNAc
Procedure, shortened: as §1

[10] = target: Gal(b1-4)GlcNAc(b1-2)Man(a1-3)[Gal(b1-4)GlcNAc(b1-2)Man(a1-6)][Gal(b1-4)GlcNAc(b1-4)]Man(b1-4)GlcNAc(b1-4)[Fuc(a1-6)]GlcNAc
Procedure, shortened: as §1

[11] = target: Gal(b1-4)GlcNAc(b1-2)Man(a1-3)[Gal(b1-4)GlcNAc(b1-2)Man(a1-6)][GlcNAc(b1-4)]Man(b1-4)GlcNAc(b1-4)[Fuc(a1-6)]GlcNAc
Procedure, shortened: as §1

[12] = target: Gal(b1-4)GlcNAc(b1-2)Man(a1-3)[GlcNAc(b1-2)Man(a1-6)]Man(b1-4)GlcNAc(b1-4)GlcNAc
Procedure, shortened: as §1

[13] = target: Gal(b1-4)GlcNAc(b1-2)Man(a1-3)[GlcNAc(b1-4)][Gal(b1-4)GlcNAc(b1-2)Man(a1-6)]Man(b1-4)GlcNAc(b1-4)GlcNAc
Procedure, shortened: as §1

[14] = target: Gal(b1-4)GlcNAc(b1-2)Man(a1-3)[Man(a1-6)]Man(b1-4)GlcNAc(b1-4)GlcNAc
Procedure, shortened: as §1

[15] = target: Gal(b1-4)GlcNAc(b1-2)Man(a1-6)Man(b1-4)GlcNAc(b1-4)GlcNAc
Procedure, shortened: as §1

[16] = target: Gal(b1-4)GlcNAc(b1-2)Man(a1-6)[GlcNAc(b1-2)Man(a1-3)]Man(b1-4)GlcNAc(b1-4)GlcNAc
Procedure, shortened: as §1

[17] = target: Gal(b1-4)GlcNAc(b1-2)Man(a1-6)[Man(a1-3)]Man(b1-4)GlcNAc(b1-4)GlcNAc
Procedure, shortened: as §1

[18] = target: Gal(b1-4)GlcNAc(b1-2)[Gal(b1-4)GlcNAc(b1-4)]Man(a1-3)[Gal(b1-4)GlcNAc(b1-2)Man(a1-6)]Man(b1-4)GlcNAc(b1-4)GlcNAc
Procedure, shortened: as §1

[19] = target: Gal(b1-4)GlcNAc(b1-2)[Gal(b1-4)GlcNAc(b1-4)]Man(a1-3)[Gal(b1-4)GlcNAc(b1-2)[Gal(b1-4)GlcNAc(b1-6)]Man(a1-6)]Man(b1-4)GlcNAc(b1-4)GlcNAc
Procedure, shortened: as §1

[20] = target: Gal(b1-4)GlcNAc(b1-2)[Gal(b1-4)GlcNAc(b1-4)]Man(a1-3)[GlcNAc(b1-4)][Gal(b1-4)GlcNAc(b1-2)Man(a1-6)]Man(b1-4)GlcNAc(b1-4)GlcNAc
Procedure, shortened: as §1

[21] = target: Gal(b1-4)GlcNAc(b1-2)[Gal(b1-4)GlcNAc(b1-4)]Man(a1-3)[GlcNAc(b1-4)][Gal(b1-4)GlcNAc(b1-2)[Gal(b1-4)GlcNAc(b1-6)]Man(a1-6)]Man(b1-4)GlcNAc(b1-4)GlcNAc
Procedure, shortened: as §1

[22] = target: Gal(b1-4)GlcNAc(b1-2)[Gal(b1-4)GlcNAc(b1-6)]Man(a1-6)[Gal(b1-4)GlcNAc(b1-2)Man(a1-3)]Man(b1-4)GlcNAc(b1-4)GlcNAc
Procedure, shortened: as §1

B1: Threefoil (Haloarcula marismortui) (protein)
chain: GSSHHHHHHHHHHSSGLVPRGSHMGDGYYKLVARHSGKALDVENASTSDGANVIQYSYSGGDNQQWRLVDLGDGYYKLVARHSGKALDVENASTSDGANVIQYSYSGGDNQQWRLVDLGDGYYKLVARHSGKALDVENASTSDGANVIQYSYSGGDNQQWRLVDL
[1]
  glycan array binding signal (z-score): -0.231
[2]
  glycan array binding signal (z-score): -0.183
[3]
  glycan array binding signal (z-score): -0.106
[4]
  glycan array binding signal (z-score): -0.15
[5]
  glycan array binding signal (z-score): 0.067
[6]
  glycan array binding signal (z-score): -0.105
[7]
  glycan array binding signal (z-score): -0.114
[8]
  glycan array binding signal (z-score): 0.603
[9]
  glycan array binding signal (z-score): 0.039
[10]
  glycan array binding signal (z-score): 0.858
[11]
  glycan array binding signal (z-score): 0.519
[12]
  glycan array binding signal (z-score): -0.142
[13]
  glycan array binding signal (z-score): 0.089
[14]
  glycan array binding signal (z-score): -0.079
[15]
  glycan array binding signal (z-score): -0.359
[16]
  glycan array binding signal (z-score): 0.062
[17]
  glycan array binding signal (z-score): -0.206
[18]
  glycan array binding signal (z-score): 3.48
[19]
  glycan array binding signal (z-score): 3.06
[20]
  glycan array binding signal (z-score): 1.43
[21]
  glycan array binding signal (z-score): 8.13
[22]
  glycan array binding signal (z-score): 0.527
